Experimental data reported in the supplement of paper PMC8728848.
The other results are listed elsewhere or left out.

What was measured:
Assay in all cases: glycan array binding signal (z-score within array); higher = stronger binding
Conditions in all cases: glycan notation: IUPAC condensed, linker removed
[1] = target: Gal3S(b1-4)Glc6S
Summary of the method: (§1)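 From the Consortium for Functional Glycomics database, 3228 arrays were curated, keeping only those whose protein sequence was available. Binding is given as a within-array Z-score averaged across arrays sharing a protein sequence and across linkers. Negative Z-scores can be read as non-binding.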

[2] = target: Gal3S(b1-4)GlcNAc
Summary of the method: as §1

[3] = target: Gal3S(b1-4)GlcNAc6S
Summary of the method: as §1

[4] = target: Gal3S(b1-4)[Fuc(a1-3)]Glc
Summary of the method: as §1

[5] = target: Gal3S4S(b1-4)GlcNAc
Summary of the method: as §1

[6] = target: Gal3S6S(b1-4)GlcNAc
Summary of the method: as §1

[7] = target: Gal3S6S(b1-4)GlcNAc6S
Summary of the method: as §1

[8] = target: Gal4S(b1-4)GlcNAc
Summary of the method: as §1

[9] = target: Gal4S6S(b1-4)GlcNAc
Summary of the method: as §1

[10] = target: Gal6S(b1-4)Glc
Summary of the method: as §1

[11] = target: Gal6S(b1-4)Glc6S
Summary of the method: as §1

[12] = target: Gal6S(b1-4)GlcNAc
Summary of the method: as §1

[13] = target: Gal6S(b1-4)GlcNAc6S
Summary of the method: as §1

[14] = target: GalNAc(a1-3)Gal
Summary of the method: as §1

[15] = target: GalNAc(a1-3)GalNAc
Summary of the method: as §1

[16] = target: GalNAc(b1-3)Gal
Summary of the method: as §1

[17] = target: GalNAc(b1-3)Gal(a1-4)Gal(b1-4)GlcNAc
Summary of the method: as §1

[18] = target: GalNAc(b1-3)GalNAc
Summary of the method: as §1

[19] = target: GalNAc(b1-4)GlcNAc
Summary of the method: as §1

[20] = target: Glc(a1-4)Glc
Summary of the method: as §1

[21] = target: Glc(a1-6)Glc(a1-6)Glc
Summary of the method: as §1

[22] = target: Glc(b1-4)Glc
Summary of the method: as §1

[23] = target: Glc(b1-6)Glc
Summary of the method: as §1

[24] = target: GlcA(b1-3)Gal
Summary of the method: as §1

[25] = target: GlcA(b1-3)GlcNAc
Summary of the method: as §1

[26] = target: GlcA(b1-6)Gal
Summary of the method: as §1

[27] = target: GlcNAc(a1-3)Gal(b1-4)GlcNAc
Summary of the method: as §1

[28] = target: GlcNAc(a1-6)Gal(b1-4)GlcNAc
Summary of the method: as §1

[29] = target: GlcNAc(b1-2)Gal(b1-3)GalNAc
Summary of the method: as §1

[30] = target: GlcNAc(b1-2)Man(a1-3)[GlcNAc(b1-2)Man(a1-6)]Man(b1-4)GlcNAc(b1-4)GlcNAc
Summary of the method: as §1

[31] = target: GlcNAc(b1-3)Gal
Summary of the method: as §1

[32] = target: GlcNAc(b1-3)Gal(b1-3)GalNAc
Summary of the method: as §1

[33] = target: GlcNAc(b1-3)Gal(b1-4)Glc
Summary of the method: as §1

[34] = target: GlcNAc(b1-3)Gal(b1-4)GlcNAc
Summary of the method: as §1

[35] = target: GlcNAc(b1-3)Gal(b1-4)GlcNAc(b1-3)Gal(b1-4)GlcNAc
Summary of the method: as §1

[36] = target: GlcNAc(b1-3)GalNAc
Summary of the method: as §1

[37] = target: GlcNAc(b1-3)Man
Summary of the method: as §1

[38] = target: GlcNAc(b1-3)[GlcNAc(b1-4)][GlcNAc(b1-6)]GlcNAc
Summary of the method: as §1

[39] = target: GlcNAc(b1-3)[GlcNAc(b1-6)]Gal(b1-4)GlcNAc
Summary of the method: as §1

[40] = target: GlcNAc(b1-3)[GlcNAc(b1-6)]GalNAc
Summary of the method: as §1

[41] = target: GlcNAc(b1-3)[GlcNAc(b1-6)]GlcNAc(b1-4)GlcNAc
Summary of the method: as §1

[42] = target: GlcNAc(b1-4)Gal(b1-4)GlcNAc
Summary of the method: as §1

[43] = target: GlcNAc(b1-4)GlcNAc
Summary of the method: as §1

[44] = target: GlcNAc(b1-4)GlcNAc(b1-4)GlcNAc
Summary of the method: as §1

[45] = target: GlcNAc(b1-4)GlcNAc(b1-4)GlcNAc(b1-4)GlcNAc(b1-4)GlcNAc
Summary of the method: as §1

[46] = target: GlcNAc(b1-4)GlcNAc(b1-4)GlcNAc(b1-4)GlcNAc(b1-4)GlcNAc(b1-4)GlcNAc
Summary of the method: as §1

[47] = target: GlcNAc(b1-4)[GlcNAc(b1-6)]GalNAc
Summary of the method: as §1

[48] = target: GlcNAc(b1-6)Gal(b1-4)GlcNAc
Summary of the method: as §1

[49] = target: GlcNAc(b1-6)GalNAc
Summary of the method: as §1

[50] = target: GlcNAc3Prop(b1-4)GlcNAc
Summary of the method: as §1

[51] = target: Kdn(a2-3)Gal(b1-3)GlcNAc
Summary of the method: as §1

[52] = target: Kdn(a2-3)Gal(b1-4)GlcNAc
Summary of the method: as §1

[53] = target: Man(a1-2)Man(a1-2)Man(a1-3)Man
Summary of the method: as §1

[54] = target: Man(a1-2)Man(a1-2)Man(a1-6)[Man(a1-3)]Man
Summary of the method: as §1

[55] = target: Man(a1-2)Man(a1-3)Man
Summary of the method: as §1

[56] = target: Man(a1-2)Man(a1-3)[Man(a1-2)Man(a1-6)]Man
Summary of the method: as §1

[57] = target: Man(a1-2)Man(a1-3)[Man(a1-2)Man(a1-6)]Man(a1-6)[Man(a1-2)Man(a1-2)Man(a1-3)]Man
Summary of the method: as §1

[58] = target: Man(a1-2)Man(a1-3)[Man(a1-2)Man(a1-6)]Man(a1-6)[Man(a1-2)Man(a1-2)Man(a1-3)]Man(b1-4)GlcNAc(b1-4)GlcNAc
Summary of the method: as §1

[59] = target: Man(a1-2)Man(a1-3)[Man(a1-6)]Man(a1-6)[Man(a1-2)Man(a1-3)]Man(b1-4)GlcNAc(b1-4)GlcNAc
Summary of the method: as §1

[60] = target: Man(a1-2)Man(a1-6)[Man(a1-3)]Man(a1-6)[Man(a1-2)Man(a1-2)Man(a1-3)]Man
Summary of the method: as §1

[61] = target: Man(a1-2)Man(a1-6)[Man(a1-3)]Man(a1-6)[Man(a1-2)Man(a1-2)Man(a1-3)]Man(b1-4)GlcNAc(b1-4)GlcNAc
Summary of the method: as §1

[62] = target: Man(a1-3)[Man(a1-6)]Man
Summary of the method: as §1

[63] = target: Man(a1-3)[Man(a1-6)]Man(a1-6)[Man(a1-2)Man(a1-3)]Man(b1-4)GlcNAc(b1-4)GlcNAc
Summary of the method: as §1

[64] = target: Man(a1-3)[Man(a1-6)]Man(a1-6)[Man(a1-3)]Man
Summary of the method: as §1

[65] = target: Man(a1-3)[Man(a1-6)]Man(a1-6)[Man(a1-3)]Man(b1-4)GlcNAc(b1-4)GlcNAc
Summary of the method: as §1

[66] = target: Man(a1-3)[Man(a1-6)]Man(b1-4)GlcNAc(b1-4)GlcNAc
Summary of the method: as §1

[67] = target: Man(a1-6)Man
Summary of the method: as §1

[68] = target: Man(b1-4)GlcNAc
Summary of the method: as §1

[69] = target: Neu5Ac(a2-3)Gal
Summary of the method: as §1

[70] = target: Neu5Ac(a2-3)Gal(b1-3)GalNAc
Summary of the method: as §1

[71] = target: Neu5Ac(a2-3)Gal(b1-3)GalNAc(b1-3)Gal(a1-4)Gal(b1-4)Glc
Summary of the method: as §1

[72] = target: Neu5Ac(a2-3)Gal(b1-3)GalNAc(b1-3)Gal(b1-4)GlcNAc
Summary of the method: as §1

[73] = target: Neu5Ac(a2-3)Gal(b1-3)GalNAc(b1-4)[Neu5Ac(a2-3)]Gal(b1-4)Glc
Summary of the method: as §1

[74] = target: Neu5Ac(a2-3)Gal(b1-3)GalNAc6S
Summary of the method: as §1

[75] = target: Neu5Ac(a2-3)Gal(b1-3)GlcNAc
Summary of the method: as §1

B1: L-Selectin (Mus musculus), P18337 (protein)
chain: MVFPWRCEGTYWGSRNILKLWVWTLLCCDFLIHHGTHCWTYHYSEKPMNWENARKFCKQNYTDLVAIQNKREIEYLENTLPKSPYYYWIGIRKIGKMWTWVGTNKTLTKEAENWGAGEPNNKKSKEDCVEIYIKRERDSGKWNDDACHKRKAALCYTASCQPGSCNGRGECVETINNHTCICDAGYYGPQCQYVVQCEPLEAPELGTMDCIHPLGNFSFQSKCAFNCSEGRELLGTAETQCGASGNWSSPEPICQVVQCEPLEAPELGTMDCIHPLGNFSFQSKCAFNCSEGRELLGTAETQCGASGNWSSPEPICQETNRSFSKIKEGDYNPLFIPVAVMVTAFSGLAFLIWLARRLKKGKKSQERMDDPY
glycan array binding signal (z-score) [1]: 1.41 | glycan array binding signal (z-score) [2]: -0.247 | glycan array binding signal (z-score) [3]: 0.952 | glycan array binding signal (z-score) [4]: 0.329 | glycan array binding signal (z-score) [5]: 1.15 | glycan array binding signal (z-score) [6]: 1.29 | glycan array binding signal (z-score) [7]: 4.38 | glycan array binding signal (z-score) [8]: 0.028 | glycan array binding signal (z-score) [9]: 1.26 | glycan array binding signal (z-score) [10]: -0.052 | glycan array binding signal (z-score) [11]: 1.58 | glycan array binding signal (z-score) [12]: 0.416 | glycan array binding signal (z-score) [13]: 1.56 | glycan array binding signal (z-score) [14]: -0.212 | glycan array binding signal (z-score) [15]: -0.238 | glycan array binding signal (z-score) [16]: -0.436 | glycan array binding signal (z-score) [17]: -0.276 | glycan array binding signal (z-score) [18]: -0.258 | glycan array binding signal (z-score) [19]: -0.456 | glycan array binding signal (z-score) [20]: -0.339 | glycan array binding signal (z-score) [21]: -0.045 | glycan array binding signal (z-score) [22]: 0.296 | glycan array binding signal (z-score) [23]: -0.127 | glycan array binding signal (z-score) [24]: -0.09 | glycan array binding signal (z-score) [25]: -0.009 | glycan array binding signal (z-score) [26]: 0.307 | glycan array binding signal (z-score) [27]: -0.209 | glycan array binding signal (z-score) [28]: -0.561 | glycan array binding signal (z-score) [29]: -0.172 | glycan array binding signal (z-score) [30]: 0.511 | glycan array binding signal (z-score) [31]: -0.015 | glycan array binding signal (z-score) [32]: -0.272 | glycan array binding signal (z-score) [33]: -0.116 | glycan array binding signal (z-score) [34]: 0.011 | glycan array binding signal (z-score) [35]: -0.337 | glycan array binding signal (z-score) [36]: -0.288 | glycan array binding signal (z-score) [37]: 0.432 | glycan array binding signal (z-score) [38]: -0.224 | glycan array binding signal (z-score) [39]: -0.379 | glycan array binding signal (z-score) [40]: -0.031 | glycan array binding signal (z-score) [41]: -0.563 | glycan array binding signal (z-score) [42]: -0.044 | glycan array binding signal (z-score) [43]: -0.057 | glycan array binding signal (z-score) [44]: 0.255 | glycan array binding signal (z-score) [45]: 0.13 | glycan array binding signal (z-score) [46]: -0.196 | glycan array binding signal (z-score) [47]: -0.492 | glycan array binding signal (z-score) [48]: -0.368 | glycan array binding signal (z-score) [49]: -0.412 | glycan array binding signal (z-score) [50]: -0.444 | glycan array binding signal (z-score) [51]: -0.025 | glycan array binding signal (z-score) [52]: -0.552 | glycan array binding signal (z-score) [53]: -0.124 | glycan array binding signal (z-score) [54]: -0.473 | glycan array binding signal (z-score) [55]: -0.133 | glycan array binding signal (z-score) [56]: -0.185 | glycan array binding signal (z-score) [57]: -0.183 | glycan array binding signal (z-score) [58]: -0.206 | glycan array binding signal (z-score) [59]: -0.4 | glycan array binding signal (z-score) [60]: -0.538 | glycan array binding signal (z-score) [61]: -0.153 | glycan array binding signal (z-score) [62]: -0.504 | glycan array binding signal (z-score) [63]: -0.031 | glycan array binding signal (z-score) [64]: -0.165 | glycan array binding signal (z-score) [65]: -0.415 | glycan array binding signal (z-score) [66]: -0.213 | glycan array binding signal (z-score) [67]: -0.017 | glycan array binding signal (z-score) [68]: -0.34 | glycan array binding signal (z-score) [69]: -0.262 | glycan array binding signal (z-score) [70]: -0.246 | glycan array binding signal (z-score) [71]: -0.203 | glycan array binding signal (z-score) [72]: -0.331 | glycan array binding signal (z-score) [73]: -0.468 | glycan array binding signal (z-score) [74]: 0.283 | glycan array binding signal (z-score) [75]: -0.281
